Laboratory results reported in FireProtDB (doi:10.1021/bi025807d).

Conditions: Homo sapiens, pH 7.4, sodium phosphate 10 mM, reversible: YES; for denaturant m value / denaturant midpoint (higher = more stable) / unfolding free energy: 25 °C, GdnHCl

For “Apolipoprotein A-I wild type (chain not printed)”, the denaturant m value (CD) was 2.4 kcal/mol/M, the “denaturant midpoint (higher = more stable)” value (CD) was 1 M and the unfolding free energy (CD) was 2.5 kcal/mol. The denaturant m value (Fluorescence) was 3.7 kcal/mol/M, the “denaturant midpoint (higher = more stable)” value (Fluorescence) was 1.1 M and the unfolding free energy (Fluorescence) was 4 kcal/mol. The Tm (Thermal, CD) was 59 °C and the “unfolding enthalpy (van 't Hoff)” value (Thermal, CD) was 40 kcal/mol.
